This is one part of the list. At the low end of the ranking, values are background and their order means little.
The sequences below were run against T1, GST-Rok (full length) (UniProt O34857) (assay: protein binding microarray). Settings: Rok is a gene silencer of Bacillus subtilis; high values mean tight binding; most listed sequences are background and not binding sites; double strand, one strand shown.
T1 sequence: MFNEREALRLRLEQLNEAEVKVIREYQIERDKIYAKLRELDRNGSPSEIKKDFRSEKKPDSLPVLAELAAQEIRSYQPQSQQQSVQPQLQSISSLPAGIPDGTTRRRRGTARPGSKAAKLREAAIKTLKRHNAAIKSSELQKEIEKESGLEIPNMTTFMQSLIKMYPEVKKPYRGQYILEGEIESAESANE
GTCGTCAC was tested, and the binding signal was -0.231 E-score. Work on GGCTGGGA yielded a binding signal of -0.396 E-score. With CAACTTCA the binding signal was 0.121 E-score. For ACCCATAT, the binding signal was 0.0996 E-score. GACGAATA gave a binding signal of 0.164 E-score. CAGAGGAC was tested, and the binding signal was -0.173 E-score. TGACACCA gave a binding signal of -0.0665 E-score. AAGAAGGC showed a binding signal of -0.308 E-score. Work on CTCTGACC yielded a binding signal of -0.389 E-score. AGTAATTC gave a binding signal of 0.29 E-score. For CCGGCAAC, the binding signal was -0.178 E-score. GCTAGCAC showed a binding signal of -0.133 E-score. For CGGCTGGC, the binding signal was -0.279 E-score. Sequence CATTCCTA has a binding signal of 0.0121 E-score. CGCTCCGC was tested, and the binding signal was -0.194 E-score. AAAGCACC gave a binding signal of -0.159 E-score. ACTTCATA showed a binding signal of 0.187 E-score. CCACCAGC gave a binding signal of -0.118 E-score. With AGAGCTTG the binding signal was -0.289 E-score. GGTCCCTA was tested, and the binding signal was -0.204 E-score. For CTCTTTAA, the binding signal was -0.0984 E-score. Sequence AAGCACCA has a binding signal of -0.202 E-score. AATTTTCA gave a binding signal of 0.0864 E-score. In the case of CGTAGCGC, the binding signal is reported as -0.0333 E-score. CACATATC was tested, and the binding signal was 0.0259 E-score. Sequence CAACTATC has a binding signal of 0.192 E-score. AGGGGTGC was tested, and the binding signal was -0.404 E-score. Work on GCTATATA yielded a binding signal of 0.389 E-score. In the case of CATTTTGC, the binding signal is reported as -0.00625 E-score. AGCGGTGC showed a binding signal of -0.261 E-score. ACTGAACT was tested, and the binding signal was 0.162 E-score. Work on ACCGATTC yielded a binding signal of 0.049 E-score. Sequence TAACAGCA has a binding signal of 0.076 E-score. AATACACA showed a binding signal of 0.234 E-score. For GCAACCGC, the binding signal was -0.205 E-score. Sequence CTTGCCTA has a binding signal of -0.147 E-score. GCCCACCA was tested, and the binding signal was -0.419 E-score. For CATTGATA, the binding signal was 0.237 E-score. In the case of AAAGTAAA, the binding signal is reported as 0.195 E-score. In the case of CATCTGAC, the binding signal is reported as -0.0595 E-score. In the case of AGGGGCTC, the binding signal is reported as -0.331 E-score. For ACAAGTTG, the binding signal was 0.0787 E-score. In the case of GGTCTAAC, the binding signal is reported as -0.0369 E-score. GACCAGGC gave a binding signal of -0.135 E-score. Work on TGATCGCA yielded a binding signal of 0.0564 E-score. ACCTGGTC showed a binding signal of -0.147 E-score. In the case of ATAATCAC, the binding signal is reported as 0.199 E-score. Work on GCGCTGAC yielded a binding signal of -0.214 E-score. TAATCGAA was tested, and the binding signal was 0.22 E-score. In the case of CCTCTATC, the binding signal is reported as -0.206 E-score. In the case of AACTCTTA, the binding signal is reported as 0.178 E-score. With CATGCCGA the binding signal was 0.0242 E-score. With ACGTGGTC the binding signal was -0.397 E-score. CCGGCTCG gave a binding signal of -0.278 E-score. CGGAGGCC showed a binding signal of -0.294 E-score. For CCGCCTTC, the binding signal was -0.238 E-score. Sequence AAGTATGT has a binding signal of 0.168 E-score. In the case of GGACGCAC, the binding signal is reported as -0.198 E-score. Work on ATAACACC yielded a binding signal of 0.215 E-score. AGCGCCTG showed a binding signal of -0.37 E-score. Sequence GACATCTA has a binding signal of 0.175 E-score. CTTGAGTA gave a binding signal of -0.0371 E-score. Sequence CACCTTAG has a binding signal of -0.178 E-score. Work on ACACAGTA yielded a binding signal of 0.115 E-score. AGATCCCA gave a binding signal of -0.0786 E-score. In the case of AAAGATTC, the binding signal is reported as -0.0338 E-score. Work on ACAGGGAC yielded a binding signal of -0.267 E-score. For ATGGGAAA, the binding signal was -0.112 E-score. Work on ACTACTCA yielded a binding signal of 0.281 E-score. Work on ACTTCAAG yielded a binding signal of 0.0223 E-score. GTGAATCA showed a binding signal of -0.159 E-score. With AATATGTC the binding signal was 0.106 E-score. GAAACAGA was tested, and the binding signal was 0.0947 E-score. CCCGTAAC gave a binding signal of -0.0818 E-score. CGTTTTTC was tested, and the binding signal was -0.137 E-score. ACATGAGA was tested, and the binding signal was 0.185 E-score. For ACTGATTC, the binding signal was 0.034 E-score. Work on ACATGAAG yielded a binding signal of -0.0351 E-score. AAGTCAGC gave a binding signal of -0.158 E-score. Work on ACTGGGCA yielded a binding signal of -0.311 E-score. For AAGACTTG, the binding signal was 0.0559 E-score. Work on ATACTCTC yielded a binding signal of -0.0829 E-score. AGTTACAT showed a binding signal of 0.276 E-score. TAGACATA was tested, and the binding signal was 0.149 E-score. GATTTGCC gave a binding signal of 0.0218 E-score. With CTAGTAGA the binding signal was 0.404 E-score. TCATGCCA was tested, and the binding signal was -0.0033 E-score. CGATTCGC showed a binding signal of -0.108 E-score. Work on CAGTCCTC yielded a binding signal of -0.234 E-score. In the case of CTTGACTA, the binding signal is reported as 0.18 E-score. CCTACAGC showed a binding signal of 0.0204 E-score. GAGCCGAA showed a binding signal of -0.103 E-score. ATTTGCAG was tested, and the binding signal was -0.00233 E-score. Work on GAATTTAC yielded a binding signal of 0.268 E-score. For AAAATAAC, the binding signal was 0.208 E-score. CAGAACAC gave a binding signal of -0.133 E-score. For CGCGTCGA, the binding signal was -0.0968 E-score. Work on ATTTACGC yielded a binding signal of 0.0487 E-score. Work on GGAAGGAC yielded a binding signal of -0.3 E-score. AACGACGC was tested, and the binding signal was -0.242 E-score. In the case of GCAAGCGA, the binding signal is reported as -0.0433 E-score. ACGGTTCT gave a binding signal of 0.164 E-score. CCAGAGAC showed a binding signal of -0.251 E-score. ATCATGAC gave a binding signal of 0.0762 E-score. In the case of AGGGCTGC, the binding signal is reported as -0.227 E-score. With CCGCAATC the binding signal was -0.0874 E-score. With CCAGGTTA the binding signal was -0.0411 E-score. Sequence ACTTCCGC has a binding signal of 0.114 E-score. With TCTCCGCA the binding signal was -0.227 E-score. ATATTTTG was tested, and the binding signal was 0.297 E-score. ATCATAGG gave a binding signal of 0.0713 E-score. Sequence ACAAGTTC has a binding signal of 0.149 E-score. With ACCAAGTC the binding signal was -0.236 E-score. ATGCTAAA showed a binding signal of 0.236 E-score. Sequence TGACTGCA has a binding signal of -0.0382 E-score. ACTCTTTC gave a binding signal of -0.169 E-score. For AAATTGTG, the binding signal was 0.172 E-score. GCCGTCAA was tested, and the binding signal was -0.116 E-score. With AAGCTTGG the binding signal was 0.00531 E-score. For GCATTAGA, the binding signal was 0.129 E-score. CGTCCCAG showed a binding signal of -0.231 E-score. CACAGCGC gave a binding signal of -0.227 E-score. CAAAGACC gave a binding signal of -0.0604 E-score. In the case of AAGTATAT, the binding signal is reported as 0.348 E-score. In the case of ATATGCAG, the binding signal is reported as 0.167 E-score. For AGACCCCT, the binding signal was -0.409 E-score. Sequence AATCCCTC has a binding signal of -0.195 E-score. Sequence AGCGTTTA has a binding signal of 0.164 E-score. GCCTAGCA showed a binding signal of -0.171 E-score. In the case of GACTTCCC, the binding signal is reported as -0.0931 E-score. ATACCCGA gave a binding signal of 0.0119 E-score. Sequence ATTACCGA has a binding signal of 0.142 E-score. In the case of CTGGCGAA, the binding signal is reported as -0.183 E-score. Sequence AACGTTAA has a binding signal of 0.123 E-score. CCTATTTC was tested, and the binding signal was -0.0235 E-score. With AAAGGTCA the binding signal was 0.0157 E-score. Work on ACCTACAG yielded a binding signal of 0.0467 E-score. CCATCTTC showed a binding signal of 0.0549 E-score. ACAGTCAC showed a binding signal of -0.155 E-score. CCGCTAGC showed a binding signal of 0.0196 E-score. ACATTCAA was tested, and the binding signal was 0.161 E-score. ATCTACAA was tested, and the binding signal was 0.276 E-score. GGTGATAA showed a binding signal of 0.163 E-score. In the case of ATCGGGCC, the binding signal is reported as -0.309 E-score. GTTTACTA gave a binding signal of 0.278 E-score. CACCAAAG showed a binding signal of -0.0144 E-score. Sequence GATTCTGA has a binding signal of -0.0104 E-score. Sequence GATAATTA has a binding signal of 0.223 E-score. ATAGCGTC was tested, and the binding signal was 0.127 E-score. Sequence GTGTGCCA has a binding signal of -0.177 E-score. Work on GCTATAGC yielded a binding signal of 0.206 E-score. In the case of CCAGTTGC, the binding signal is reported as 0.0438 E-score. Work on CAGATGTC yielded a binding signal of 0.128 E-score. GGGAACCC gave a binding signal of -0.281 E-score. Sequence GAAACCTA has a binding signal of 0.123 E-score. GGTAAAGA gave a binding signal of 0.156 E-score. ACTATAGG was tested, and the binding signal was 0.0843 E-score. For GAGTACGA, the binding signal was 0.0148 E-score. Sequence GGGCTGTA has a binding signal of -0.00207 E-score. With GCCTTTCC the binding signal was -0.376 E-score. GTAGGCAC gave a binding signal of -0.129 E-score. With CTTTGCTC the binding signal was -0.0932 E-score. Work on TCCAGCAA yielded a binding signal of 0.155 E-score. ATTGACTC gave a binding signal of -0.0934 E-score. Sequence ACCAAGCT has a binding signal of 0.138 E-score. ACCGTCCC gave a binding signal of -0.254 E-score. For CTTATTGA, the binding signal was -0.157 E-score. AGGATCCG was tested, and the binding signal was -0.00887 E-score. ACCGAGCT gave a binding signal of -0.0523 E-score. In the case of AACGTGAT, the binding signal is reported as 0.134 E-score. Sequence GTGGAGCA has a binding signal of -0.0352 E-score. With ACACGCCT the binding signal was -0.0198 E-score.

— PMC6212790
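Also: rank score from −0.5 (least bound) to 0.5 (best bound).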
